Measurements as given in the supplement of paper PMC4466236.
Whole data set: some 33,000 sequences, median “E-score (dimensionless, -0.5 to 0.5)” near -0.058, cut for the highest 2% near 0.35. This is one part of the list.

The sequences below were run on MvaT (assay: PBM 8-mer E-score (mean of HK and ME arrays) (E-score (dimensionless, -0.5 to 0.5)); higher = stronger relative binding preference; most listed sequences are background and not binding sites).
Outline: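 Reported values are rank-based E-scores, taken as the mean of two universal arrays and parsed with a custom script. Each 8-mer score falls between -0.5 and 0.5. The arrays, ME and HK, were double-stranded 60-mers with a constant 25-mer primer region and a variable 35-mer region covering all 8-mers. They were probed, by an earlier protocol, with full-length P. aeruginosa MvaT carrying an N-terminal glutathione S-transferase fusion.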

Sequence | PBM 8-mer E-score
AGGACCAC | -0.173
GTCCTTTA | -0.0109
GGCGGGAC | -0.191
ACCTCGTC | -0.146
CGCGCCAG | -0.104
AAAGATTC | 0.0797
AAGGTGAC | -0.136
GTCGCAAC | 0.0269
CTAACATA | 0.262
GGATAATA | 0.403
AACACAGA | -0.0816
GAATTAAC | 0.256
CAGTAGAC | -0.0804
GGTGGTTA | -0.0682
CTGGTTGC | -0.126
CACGGCGC | -0.244
ACGGCTAT | -0.171
CCGTTGTC | -0.0529
AAAATTGG | 0.147
GGGCTCGA | -0.241
TAGTCACA | 0.0578
CTAAGGAG | -0.15
CCCGTATC | -0.18
GCCGGAAA | -0.0848
GAGCCTCA | -0.239

Sequence | PBM 8-mer E-score
GGTTGCAC | -0.174
AGCTGGCC | -0.255
GATAGGGC | -0.179
GCGATTTA | 0.0849
AAAGGAAT | 0.182
CATCCTAC | -0.22
AGCCACTG | -0.0963
GAATCTAA | 0.0908
CCCCCGAA | -0.319
AACTGAGT | -0.0534
CCTCCTCA | -0.284
TCCAGACA | -0.13
GACTTGTA | 0.0741
AGCCCAGG | -0.263
GAGACGCC | -0.302
GTAACTCA | 0.116
AGACACGC | -0.0796
AATGGTAT | 0.1
CTACCTCC | -0.196
AAGGAGGG | -0.287
CAAACGGA | 0.123
ACACTGCG | -0.134
ACCCATAC | 0.0312
ACTGCCCT | -0.182
AAAAAGGC | -0.0522

Sequence | PBM 8-mer E-score
AAAGTGCA | 0.106
CGCGGCGC | -0.0697
ACATAGAT | 0.201
CAAGAGAC | -0.183
ATCGCTGA | -0.165
CCCCACAC | -0.135
CCCCTTTC | -0.166
TCACCGGA | -0.182
GGAGAAAC | -0.0882
ATGTGATG | -0.112
ATCAAAGC | 0.00523
TCGGCCGA | -0.0545
TAGCTACA | -0.0781
TAGCGAAA | 0.0719
ACAGCTGT | -0.167
AATTTGAT | 0.26
CGTCGCTC | -0.145
GGGCCCAC | -0.271
ACCGCTCA | -0.25
ATTTCGAC | 0.112
GCAACAGC | -0.0926
CGGGAGTA | 0.0408
ACTCGGAA | 0.0222
TATCGGCA | -0.0374
CCCCAATC | -0.177

Sequence | PBM 8-mer E-score
TTCAGCAA | 0.11
ACAACCGC | -0.0804
CGGATAAG | -0.103
CGTGGCCC | -0.128
AATCTCGA | 0.179
ACCATATA | 0.332
GGGGTGCA | -0.187
CGACTGCG | -0.241
GTCATGAC | 0.063
ACCAAATG | 0.0683
ACCCTAGT | -0.0199
CGAAACAA | 0.161
GCAATCCA | -0.0685
GAAACTCA | -0.131
AAGAGCGA | -0.0398
GTCCTGCA | -0.189
ACATTTCG | 0.175
ATGGTCCG | -0.0605
CCCCCCGA | -0.273
ATGCGGGC | -0.198
CGGTGTTA | 0.107
ACATCAGT | 0.0159
CAAGAAAC | 0.0789
ATGCACGC | -0.239
CGTACAAC | 0.0206

Sequence | PBM 8-mer E-score
TCCTACAA | -0.112
AGTCGCAG | -0.147
TGCCCACA | -0.106
GCCCCGTA | -0.173
GGCCACTA | -0.107
CAACCCAA | 0.0539
ACCAGGCT | -0.122
GGTTGGAA | -0.00665
ACGTTGTC | -0.19
CGAGACAG | -0.231
ATGAGTAG | 0.111
AAGCACGC | -0.0662
GAAAGTTA | 0.346
CATGAGCG | -0.229
GCCCTAGA | -0.107
GACCTATC | -0.216
AATAAACT | 0.293
AAAACACA | 0.118
AAAAAAAG | 0.0824
TGGGCTAA | 0.0167
AACGGTCG | -0.137
CCTCGGCG | -0.268
AGGAGCCC | -0.352
AAGTCGAC | -0.0082
GATGAAAA | 0.0924

Sequence | PBM 8-mer E-score
CTTCAACA | 0.0315
AAATGCTC | -0.0104
CTTCTTAA | 0.0925
AGCAATTC | -0.105
AGGGCGCG | -0.164
CCTCAGTC | -0.185
CCACCATC | -0.107
AAACTCAG | 0.085
CGCCCGAA | -0.0347
ATTCCATA | 0.152
CGATTTAC | -0.101
AATGTTTA | 0.304
ATTACCCA | 0.283
TCTTATCA | 0.177
ACTAGGTC | -0.194
GATCGCCC | -0.152
ACAAGCTA | -0.0503
CGACGGCC | -0.158
ACGAGCCG | -0.244
AAAACGCT | 0.0807
AGGAATTC | 0.00711
CAACTATA | 0.296
ACCGTCCA | -0.133
ACGGGGTG | -0.259
TGAATTAA | 0.376

Sequence | PBM 8-mer E-score
CCTTCACC | -0.245
AGATTGGG | -0.0767
ACGTCAAT | 0.201
AAAATTTC | 0.262
ATGCAGCA | -0.0483
CAACGGTG | -0.199
CACCGCGA | -0.074
AAAGTTGG | 0.229
AGCGTAAC | -0.0274
GACGAGTC | -0.251
CCGTTACG | -0.144
CTTTCCCA | -0.144
ACGCTCTA | 0.052
CGCTGCGA | -0.223
TAATGATA | 0.192
GGTGCCAC | -0.245
AAAATGAT | 0.175
AGCGCAAG | -0.0786
CTCCGTCA | -0.216
AGTGGGTC | -0.121
ACGTAACG | -0.0176
CTAAGTAA | 0.3
AATCTGCT | -0.0198
AGGTTGCC | -0.185
AGGCACCT | -0.217

Sequence | PBM 8-mer E-score
CCTGGCCC | -0.188
CTCAATCA | 0.00229
AGCGTGCG | -0.204
CCATATAA | 0.343
GAAGAGAC | -0.058
AACAGCTA | 0.0766
CACAACCC | -0.0734
AATACGAA | 0.136
CATTTAGC | -0.0206
GTAGAAGA | 0.0424
CCGCCCTA | -0.167
CACCGGGA | -0.114
AGTATACT | 0.422
ATTAGAAA | 0.181
CACATAAG | 0.122
GCAAAGGC | -0.239
GGAAGACC | -0.247
AACTGATT | 0.171
ACGCCGAT | -0.144
AGCCAACT | 0.00249
GAGCGTAA | -0.0448
GCCGCACA | -0.138
ATATAACC | 0.37
AAACCTAG | 0.0925
GCAGCCCA | -0.265

Sequence | PBM 8-mer E-score
CCCTTTGA | -0.188
ATGCAAGG | 0.0234
AGTTTGGA | 0.151
AAAATATA | 0.43
GCCAGGAC | -0.272
GGAAGAAA | 0.0396
AAGAAGGG | -0.144
TAGGGACA | -0.263
AAAGCAAA | 0.139
CACCCATC | -0.0704
GACCGTGA | -0.135
CTGTGGCC | -0.201
AGCTGTTC | -0.131
AAACAGGT | 0.035
CAATTAAG | 0.24
AGCTACCA | -0.167
TCAACTCA | -0.0743
GAGCCAAA | -0.291
AATCAGGT | 0.0801
